Results reported in the supplement of paper PMC6089552.
In all, about 3,200 compounds went through this assay and about 300 (9.4%) showed activity. The entries are a selection whose mix differs from that of the whole data set.

Test system: A673/TR/shEF
Assay: cell viability (LOESS-normalised, relative to median of negative controls) (log2 ratio); higher = more viable cells (less compound effect), active = hit call of the paper (over 3 MAD below the median)
Conditions: treatment time: 72 h
Method in brief: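 A673/TR/shEF Ewing sarcoma cells (1,500 per well, 384-well plates) were grown with or without doxycycline to induce EWS-FLI1 shRNA knockdown, starting 24 h before compounds. Library compounds at two or more concentrations, with DMSO controls, were added for three days. Cell viability was read by CellTiter-Glo luminescence on an Envision reader, then LOESS-corrected per plate, divided by the median of negative controls and log2-transformed. Hits were wells at least three median absolute deviations from the median of all screened wells.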

[1] = 0.25 µM, library screen: screen1, EWS-FLI1 expression: high (no doxycycline)
[2] = 0.25 µM, library screen: screen1, EWS-FLI1 expression: low (doxycycline-induced shRNA knockdown)
[3] = 0.25 µM, library screen: screen2, EWS-FLI1 expression: high (no doxycycline)
[4] = 0.25 µM, library screen: screen2, EWS-FLI1 expression: low (doxycycline-induced shRNA knockdown)
[5] = 2.5 µM, library screen: screen1, EWS-FLI1 expression: high (no doxycycline)
[6] = 2.5 µM, library screen: screen1, EWS-FLI1 expression: low (doxycycline-induced shRNA knockdown)
[7] = 2.5 µM, library screen: screen2, EWS-FLI1 expression: high (no doxycycline)
[8] = 2.5 µM, library screen: screen2, EWS-FLI1 expression: low (doxycycline-induced shRNA knockdown)

Measured: cell viability (log2)

COc1ccccc1N1CCNCC1
inactive: [1] 0.0547 | [2] 0.0205 | [3] 0.228 | [4] 0.0463 | [5] 0.105 | [6] 0.112 | [7] 0.201 | [8] 0.0929

CC(=O)OC1CCC2(C)C(CCC3C2CCC2(C)C(C4=CC(=O)OC4)C(OC(C)=O)CC32O)C1 (stereo not given)
active: [5] -2.02 | [6] -2.26

O=C1C=CC(=O)C=C1
inactive: [3] 0.113 | [4] 0.0786 | [7] 0.21 | [8] 0.141

CC(C)[C@]12O[C@H]1[C@@H]1O[C@@]13[C@@]1(C)CCC4=C(COC4=O)[C@@H]1C[C@@H]1O[C@@]13C2=O
active: [1] -2.66 | [2] -3.01 | [5] -3.24 | [6] -2.91

CN(C)[C@@H]1C(=O)C(C(N)=O)=C(O)[C@@]2(O)C(=O)C3=C(O)c4c(O)cccc4[C@@](C)(O)[C@H]3[C@H](O)[C@@H]12
inactive: 0.103 µM, library screen: screen3, EWS-FLI1 expression: high (no doxycycline) 0.0702 | 0.103 µM, library screen: screen3, EWS-FLI1 expression: low (doxycycline-induced shRNA knockdown) 0.0143 | [1] 0.0991 | [2] 0.163 | 0.308 µM, library screen: screen3, EWS-FLI1 expression: high (no doxycycline) 0.0382 | 0.308 µM, library screen: screen3, EWS-FLI1 expression: low (doxycycline-induced shRNA knockdown) 0.159 | 0.926 µM, library screen: screen3, EWS-FLI1 expression: high (no doxycycline) 0.119 | 0.926 µM, library screen: screen3, EWS-FLI1 expression: low (doxycycline-induced shRNA knockdown) 0.101 | [5] 0.158 | [6] 0.172 | 2.8 µM, library screen: screen3, EWS-FLI1 expression: high (no doxycycline) 0.158 | 2.8 µM, library screen: screen3, EWS-FLI1 expression: low (doxycycline-induced shRNA knockdown) 0.126 | 8.3 µM, library screen: screen3, EWS-FLI1 expression: high (no doxycycline) 0.103 | 8.3 µM, library screen: screen3, EWS-FLI1 expression: low (doxycycline-induced shRNA knockdown) 0.0656 | 25 µM, library screen: screen3, EWS-FLI1 expression: high (no doxycycline) 0.0616 | 25 µM, library screen: screen3, EWS-FLI1 expression: low (doxycycline-induced shRNA knockdown) 0.0848

CN1C(=O)CCS(=O)(=O)C1c1ccc(Cl)cc1 (stereo not given)
inactive: [1] 0.0501 | [2] 0.0344 | [3] 0.126 | [4] 0.114 | [5] 0.0851 | [6] 0.0868 | [7] 0.0874 | [8] 0.0761

CCCn1c(C)c(C(=O)c2cccc3ccccc23)c2ccccc21
inactive: [3] 0.213 | [4] 0.128 | [7] 0.0897 | [8] 0.055

C=C1C2CC[C@@]3(C)[C@H](c4ccoc4)OC(=O)C[C@]13O[C@H]1CC(=O)C(C)(C)[C@H](C(OC(C)=O)C(=O)OC)[C@@]21C (stereo not given in full)
inactive: [1] 0.0428 | [2] 0.0583 | [5] 0.106 | [6] 0.119
